# Experimental data reported in PubChem BioAssay AID686979 (National Center for Advancing Translational Sciences (NCATS), 2013).
# Screen size: about 420,000 compounds; about 50,000 (12%) were called active. This list was built around the results that the source calls inconclusive (neither active nor inactive); the mix of calls is not that of the screen. Calls come from the whole dose curve; as a rule, active = well fitted inhibition curve with a large enough effect; inconclusive = small, poorly fitted or top-dose-only effect; inactive = flat fitted curve, though single readings scatter. No potency is given beside an inconclusive call; the fits are too rough.
# Experiment: qHTS for Inhibitors of human tyrosyl-DNA phosphodiesterase 1 (TDP1): qHTS in cells in presence of CPT; note: nearly all actives have a fitted effect of over 55% in size
# Conditions: chicken DT40 Tdp1-/-;hTDP1 cells + 20 nM CPT, ATP luminescence, 48 h; activity change, negative = growth inhibition: at 46.2 µM (top of the series) unless noted
# How it was run: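 Cell growth measured by CellTiter-Glo luminescence after a minimum 48 h, 37 C compound exposure with 20 nM CPT in Tdp1-knockout DT40 cells stably expressing hTDP1, seeded 400/well; qHTS titration format.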
# % is set by controls: 0 for no effect and ±100 for the full control effect; potency is the fitted concentration of half-maximal effect; tags give direction and shape of the fitted curve.
SMILES,Potency,"activity change, negative = growth inhibition"
CCOc1ccc(CCNC(=O)COC(=O)c2c(OC)cccc2OC)cc1OCC,"inconclusive [inhibitor, single point]",–
CCOc1ccc(C(=O)COC(=O)c2cc([N+](=O)[O-])ccc2N2CCOCC2)cc1,–,inconclusive: -31.9% [inhibitor]
CN(CC(=O)Nc1ccc(F)cc1)C(=O)c1ccccc1Sc1ccccc1C#N,"inconclusive [inhibitor, single point]",–
COc1ccc(CCNC(=O)c2ccc3c(c2)CCN3S(=O)(=O)c2ccccc2)cc1,active: 3.66 µM,–
CCOc1cc(CNC(=O)c2cc(-c3ccccc3)n[nH]2)cc(OCC)c1OCC,"inconclusive [inhibitor, single point]",–
Cc1nc(N)sc1-c1ccccc1,inactive,–
C=C(Br)CN1CCN(CC(=C)Br)CC1,"inconclusive [inhibitor, partial curve, poor fit]",–
COc1ccccc1N1CCN(C(=O)CC(NC(=O)c2ccccc2Cl)c2ccccc2)CC1 (stereo unspecified),inactive,–
O=C1Nc2ccccc2/C1=N/N=C/c1ccc(-c2ccc([N+](=O)[O-])cc2)o1,"inconclusive [inhibitor, single point]",–
CCCN(CCC)C(=O)c1ccc2c(c1)S(=O)(=O)c1ccccc1C2=O,"inconclusive [inhibitor, single point]",–
COc1ccc(-c2noc(N3CCC(C(=O)Nc4cccc(C)c4C)CC3)n2)cc1,"inconclusive [inhibitor, single point]",–
Cc1nc(C)c(-c2ccc(SCc3ccccc3C)nn2)s1,"inconclusive [inhibitor, single point]",–
O=C(NCC(=O)N1CCC2(CC1)NCCc1[nH]cnc12)c1ccc(F)cc1,inactive,–
O=C(CN1C(=O)NC2(CCCC2)C1=O)OCc1ccc(Br)cc1,"inconclusive [inhibitor, single point]",–
Cc1nc2ccc(NC(=O)c3ccc([N+](=O)[O-])cc3)cc2[nH]1,–,inconclusive: -30.4% [inhibitor]
COc1ccc(-c2noc(-c3ccccc3C(=O)N3CCOCC3)n2)cc1,"inconclusive [inhibitor, single point]",–
O=[N+]([O-])c1ccc(C(O)CN2CCOCC2)cc1 (stereo unspecified),inactive,–
COc1ccc2[nH]cc(S(=O)(=O)c3ccc(C(C)C)cc3)c(=O)c2c1,inactive,–
CCc1ccc(NC(=O)CSc2nc3nc(C)cc(C)n3n2)cc1,"inconclusive [inhibitor, single point]",–
O=C(NN=Cc1ccccc1O)c1cccc([N+](=O)[O-])c1,active: 0.82 µM,–
COc1ccccc1C=NN=Cc1ccccc1O,inactive,–
CCOc1cc(C(c2c(C)[nH]n(-c3ccccc3)c2=O)c2c(C)[nH]n(-c3ccccc3)c2=O)ccc1O,"inconclusive [inhibitor, single point]",–
O=C(Nc1ccc(Cl)cc1)C1c2cccc[n+]2CC(=O)N1Cc1ccc2c(c1)OCO2 (stereo unspecified),active: 1.3 µM,–

SMILES,Potency,"activity change, negative = growth inhibition"
Cc1ccc(-n2[nH]c(C)c(/C=N/n3c(C)nc4ccccc4c3=O)c2=O)cc1,active: 6.51 µM,–
O=C(CN1C(=O)C2(SCC(=O)N2c2ccc(F)c(F)c2)c2ccccc21)NCCc1ccccc1 (stereo unspecified),"inconclusive [inhibitor, single point]",–
CCOC(=O)C1=CCN(S(=O)(=O)c2ccccc2C)C1c1ccccc1 (stereo unspecified),active: 29.1 µM,–
Cc1ccc(-c2csc(NC(=O)C3CC(=O)N(Cc4ccco4)C3)n2)cc1 (stereo unspecified),"inconclusive [inhibitor, single point]",–
COc1cc(C)c(C)cc1S(=O)(=O)N1CCCc2ccccc21,active: 16.4 µM,–
COc1ccc(CCNC(=O)c2cnn(-c3ccc(F)cc3)c2C2CCN(C(=O)OC(C)(C)C)CC2)cc1OC,"inconclusive [inhibitor, single point]",–
O=c1c(-c2cccs2)nc2ccccc2n1C(c1ccccn1)c1nc2ccccc2[nH]1 (stereo unspecified),"inconclusive [inhibitor, single point]",–
CCCCN(CCCNC(=O)CN1C(=O)COc2ccc(S(=O)(=O)N3CCC(C)CC3)cc21)Cc1ccccc1,"inconclusive [inhibitor, single point]",–
CC(Oc1ccccc1)C(=O)Nc1ccc(C(=O)OCc2cc(=O)n3nc(C(C)C)sc3n2)cc1 (stereo unspecified),inactive,–
CCOC(=O)c1c(C)[nH]c2c1-c1ccccc1C(=O)C2=O,active: 0.517 µM,–
C/C(=N\NC(=O)c1ccccc1)c1ccc(N2CCCCC2)cc1,inactive,–
N#CCCn1c(=O)c(-c2cccs2)nc2cnc(N3CCNCC3)nc21,"inconclusive [inhibitor, single point]",–
Cc1c(OC(C)C(=O)NCC(O)c2ccccc2)ccc2c3c(c(=O)oc12)CCCC3 (stereo unspecified),active: 23.1 µM,–
CC(C)c1nc2sc3ccccc3c(=O)c2c(=O)n1Cc1ccccc1,active: 16.4 µM,–
CCN(CC)S(=O)(=O)c1ccc(NC(=O)Cn2ncc3c([nH]c4ccccc43)c2=O)cc1,"inconclusive [inhibitor, single point]",–
Cc1nc2c(C(=O)N3CCCCC3)cnn2c(C)c1Cc1ccccc1F,"inconclusive [inhibitor, single point]",–
CCn1c(=O)c(C(=O)CN2CCN(S(=O)(=O)c3cc(C)ccc3C)CC2)c(N)n(Cc2ccccc2)c1=O,active: 10.3 µM,–
CCC(c1ccccc1)C(CC)c1cc(O)c(O)c(O)c1 (stereo unspecified),active: 16.4 µM,–
CCOc1ccc(/C=C/c2nc(C#N)c(N3CCN(CC)CC3)o2)cc1,active: 6.51 µM,–
O=C(CSc1nnc(CNC(=O)c2ccccc2)o1)c1ccc(Cl)cc1,"inconclusive [inhibitor, single point]",–
COC(=O)c1[nH]c2cc(OC)ccc2c1NC(=O)CCN1CCSCC1,inactive,–
CN(C)c1ccc(/C=C/c2c[n+](C)cc3ccccc23)cc1,active: 0.355 µM,–
N/C(Cc1cccs1)=N\OC(=O)COc1ccc(Cl)cc1Cl,inactive,–
